Assay results published in patent publication US11192863B2, “Antiviral compounds and methods” (Biotron Limited, priority 2003, dated 2021).

What was measured:
HCV p7 protein = HCV p7 protein (Hepatitis C virus genotype 1a, UniProt P27958, L790F); conditions: halo of growth score; E. coli expressing p7 at 37° C.
MHV E protein = MHV E protein (Murine coronavirus, UniProt P0C2R0); conditions: halo of growth score; E. coli expressing E protein at 37° C.

| SMILES | HCV p7 protein Inhibition (score/# of times tested) (HCV p7 protein) | MHV E protein Inhibition (score) (MHV E protein) |
| --- | --- | --- |
| N=C(N)NC(=O)c1ccc2ccccc2c1Br [1-bromo-2-napthoylguanidine] | 0.75/1 score | 0.2 |
| NC(N)=NC(=O)c1cccc2ccccc12 [1-napthoylguanidine] | 2.25/1 score | 1.7 |
| Cc1cc(C)c(C)c(/C=C/C(=O)NC(=N)N)c1C [2,3,5,6,-tetramethylcinnamoylguanidine] | 1.51/2 score | 0.4 |
| N=C(N)NC(=O)/C=C/c1cccc(F)c1F [2,3-difluorocinnamoylguanidine] | 1.24/1 score | 3.8 |
| Cc1cccc(/C=C/C(=O)NC(=N)N)c1C [2,3-dimethylcinnamoylguanidine] | 3.88/2 score | 1.0 |
| Cc1cc(C)c(/C=C/C(=O)NC(=N)N)c(C)c1 [2,4,6-trimethylcinnamoylguanidine] | 3.75/1 score | 1.2 |
| N=C(N)NC(=O)/C=C/c1ccc(Cl)cc1Cl [2,4-dichlorocinnamolyguanidine] | 0.38/1 score | 0.8 |
| Cc1ccc(C)c(/C=C/C(=O)NC(=N)N)c1 [2,5-dimethylcinnamoylguanidine] | 3.43/4 score | 2.3 |
| N=C(N)NC(=O)/C=C/c1c(Cl)cccc1Cl [2,6-dichlorocinnamoylguanidine] | 3.00/3 score | 1.2 |
| N=C(N)NC(=O)Cc1cccc2ccccc12 [2-(1-napthyl)acetoylguanidine] | 1.14/1 score | 0.4 |
| N=C(N)NC(=O)Cc1ccc2ccccc2c1 [2-(2-napthyl)acetoylguanidine] | – | 0.4 |
| N=C(N)NC(=O)/C=C/c1ccccc1C(F)(F)F [2-(trifluoromethyl)cinnamoylguanidine] | 2.63/3 score | 2.7 |
| N=C(N)NC(=O)/C=C/c1c(F)cccc1Cl [2-chloro-6-fluorocinnamoylguanidine] | 0.88/1 score | – |
| N=C(N)NC(=O)/C=C/c1ccccc1C1CCCCC1 [2-cyclohexylcinnamoylguanidine] | 2.26/2 score | 0.9 |
| CCOc1ccccc1/C=C/C(=O)NC(=N)N [2-ethoxycinnamoylguanidine] | 1.00/1 score | 0.7 |
| CCc1ccccc1/C=C/C(=O)NC(=N)N [2-ethylcinnamoylguanidine] | 2.36/2 score | 0.8 |
| N=C(N)NC(=O)/C=C/c1ccccc1F [2-fluorocinnamoylguanidine] | 1.0/1 score | 0.8 |
| Cc1ccccc1/C=C/C(=O)NC(=N)N [2-methylcinnamoylguanidine] | 0.75/1 score | 1.2 |
| N=C(N)NC(=O)/C=C/c1ccccc1-c1ccccc1 [2-phenylcinnamoylguanidine] | 1.00/1 score | 3.4 |
| CC(C)(C)c1ccccc1/C=C/C(=O)NC(=N)N [2-t-butylcinnamoylguanidine] | 2.36/2 score | 3.8 |
| N/C(=N\C(=O)c1nc(Cl)c(N)nc1N)NCc1ccc(Cl)cc1Cl [2′4 DichloroBenzamil HCl] | 1.88/1 score | – |
| COc1cc(/C=C/C(=O)NC(=N)N)cc(OC)c1OC [3,4,5-trimethoxycinnamoylguanidine] | 0.71/1 score | 0.1 |
| N=C(N)NC(=O)/C=C/c1ccc2c(c1)OCO2 [3,4-(methylenedioxy)cinnamoylguanidine] | 1.13/1 score | 0.3 |
| N=C(N)NC(=O)/C=C/c1ccc(Cl)c(Cl)c1 [3,4-dichlorocinnamoylguanidine] | 2.59/3 score | 3.8 |
| N=C(N)NC(=O)/C=C/c1ccc(F)c(F)c1 [3,4-difluorocinnamoylguanidine] | 0.13/1 score | 0.4 |
| N=C(N)NC(=O)/C=C/c1ccc2ccccc2c1 [3-(2-napthyl)acryloylguanidine] | 1.93/2 score | 2.8 |
| N=C(N)NC(=O)/C=C/c1cccc(C2=CCCCC2)c1 [3-(cyclohex-1-en-1-yl)cinnamoylguanidine] | 1.32/2 score | 2.9 |

| SMILES | HCV p7 protein Inhibition (score/# of times tested) (HCV p7 protein) | MHV E protein Inhibition (score) (MHV E protein) |
| --- | --- | --- |
| CCCCC/C=C/c1cccc(/C=C/C(=O)NC(=N)N)c1 [3-(trans-hept-1-en-1-yl)cinnamoylguanidine] | 0.50/1 score | – |
| N=C(N)NC(=O)/C=C/c1cccc(OC(F)(F)F)c1 [3-(trifluoromethoxy)cinnamoylguanidine] | 2.26/2 score | 4.1 |
| CCOc1cccc(/C=C/C(=O)NC(=N)N)c1 [3-ethoxycinnamoylguanidine] | 1.63/1 score | 0.3 |
| N=C(N)NC(=O)/C=C/c1cccc(F)c1 [3-fluorocinnamoylguanidine] | 0.86/1 score | 0.8 |
| CC(C)c1cccc(/C=C/C(=O)NC(=N)N)c1.Cl [3-isopropylcinnamoylguanidine hydrochloride] | 2.00/1 score | 4.2 |
| N=C(N)NC(=O)/C=C/c1cccc(-c2ccccc2)c1 [3-phenylcinnamoylguanidine] | 1.0/1 score | 3.7 |
| CC(C)(C)c1cccc(/C=C/C(=O)NC(=N)N)c1 [3-t-butylcinnamoylguanidine] | 2.23/2 score | 4.0 |
| N=C(N)NC(=O)/C=C/c1ccc(C(F)(F)F)cc1 [4-(trifluoromethyl)cinnamoylguanidine] | 3.33/5 score | 2.8 |
| CCOc1ccc(/C=C/C(=O)NC(=N)N)cc1 [4-ethoxycinnamoylguanidine] | 1.63/1 score | 0.4 |
| N=C(N)NC(=O)/C=C/c1ccc(F)cc1 [4-fluorocinnamoylguanidine] | 1.86/1 score | 0.2 |
| CC(C)c1ccc(/C=C/C(=O)NC(=N)N)cc1 [4-isopropylcinnamoylguanidine] | 2.51/2 score | 4.5 |
| Cc1ccc(/C=C/C(=O)NC(=N)N)cc1 [4-methylcinnamoylguanidine] | 2.32/2 score | 0.4 |
| N=C(N)NC(=O)/C=C/c1ccc(-c2ccccc2)cc1 [4-phenylcinnamoylguanidine] | 1.5/1 score | – |
| CC(C)(C)c1ccc(/C=C/C(=O)NC(=N)N)cc1 [4-t-butylcinnamoylguanidine] | 2.42/2 score | 4.1 |
| NC(N)=NC(=O)c1nc(I)c(N)nc1N [6-Iodoamiloride] | 1.13/1 score | – |
| N=C(N)NC(=O)/C=C/c1ccco1 [(2-Furanacryloyl)guanidine] | 1.38/1 score | – |
| N=C(N)NC(=O)/C=C/c1ccccc1[N+](=O)[O-] [(2-Nitrocinnamoyl)guanidine] | 1.14/1 score | – |
| N=C(N)NC(=O)CCc1ccccc1 [(3-phenylpropanoyl)guanidine] | 1.0/1 score | – |
| N=C(N)NC(=O)/C=C/c1ccc([N+](=O)[O-])cc1 [(4-Nitrocinnamoyl)guanidine] | 0.25/1 score | – |
| Cl.NC(N)=NC(=O)c1nc(Cl)c(N)nc1N [Amiloride•HCl, reference compound] | 0.5/2 score | – |
| N/C(=N\C(=O)c1nc(Cl)c(N)nc1N)NCc1ccccc1 [Benzamil hydrochloride, N-Benzyl-N′-(3,5-diamino-6-chloro-pyrzine-2-carbonyl)-guanidine] | 2.0/1 score | – |
| N=C(NC(=O)c1ccc2cc(O)ccc2c1)Nc1ccccc1 [N-(6-Hydroxy-2-napthoyl)-N′-phenylguanidine] | 1.38/1 score | – |
| N=C(NC(=O)/C=C/c1ccccc1)Nc1ccccc1 [N-(cinnamoyl)-N′phenylguanidine, N-(cinnamoyl)-N′-phenylguanidine] | 2.13/1 score | – |
| N/C(=N\C(=O)c1nc(Cl)c(N)nc1N)Nc1ccccc1 [Phenamil methanesulfonate salt, N-(3,5-Diamino-6-chloro-pyrazine-2-carbonyl)-N′-phenylguanidine] | 0.5/1 score | – |
| N=C(N)NC(=O)COc1ccc(Cl)cc1 [[(4-Chlorophenoxy-acetyl]guanidine, (4-Chlorophenoxy-acetyl)guanidine] | 1.0/1 score | – |
| C/C(=C\c1ccc(N(C)C)cc1)C(=O)NC(=N)N [[(E)-3-(4-Dimethylaminophenyl)-2-methylacryloyl]guanidine] | 0.03/4 score | – |
| N=C(N)NC(=O)/C=C/c1ccoc1 [trans-3-Furanacryoylguanidine, trans-3-furanacryoylguanidine] | 1.38/1 score | – |

Structures can show the parent of a compound that is named as a salt.
